Data published in paper PMC7515921, “MFSD7C switches mitochondrial ATP synthesis to thermogenesis in response to heme” (Nature Communications, 2020).
Results are given in words; binding and its absence hold for the method and conditions named. In cells and extracts the contact can be indirect. Some entries that bind do so weakly or less than the wild type. For some assays here: Where a sequence is shown, tags or fusion partners need not be part of it.

Amino acid sequences for entries named in this document (tags omitted).
UniProt O55143: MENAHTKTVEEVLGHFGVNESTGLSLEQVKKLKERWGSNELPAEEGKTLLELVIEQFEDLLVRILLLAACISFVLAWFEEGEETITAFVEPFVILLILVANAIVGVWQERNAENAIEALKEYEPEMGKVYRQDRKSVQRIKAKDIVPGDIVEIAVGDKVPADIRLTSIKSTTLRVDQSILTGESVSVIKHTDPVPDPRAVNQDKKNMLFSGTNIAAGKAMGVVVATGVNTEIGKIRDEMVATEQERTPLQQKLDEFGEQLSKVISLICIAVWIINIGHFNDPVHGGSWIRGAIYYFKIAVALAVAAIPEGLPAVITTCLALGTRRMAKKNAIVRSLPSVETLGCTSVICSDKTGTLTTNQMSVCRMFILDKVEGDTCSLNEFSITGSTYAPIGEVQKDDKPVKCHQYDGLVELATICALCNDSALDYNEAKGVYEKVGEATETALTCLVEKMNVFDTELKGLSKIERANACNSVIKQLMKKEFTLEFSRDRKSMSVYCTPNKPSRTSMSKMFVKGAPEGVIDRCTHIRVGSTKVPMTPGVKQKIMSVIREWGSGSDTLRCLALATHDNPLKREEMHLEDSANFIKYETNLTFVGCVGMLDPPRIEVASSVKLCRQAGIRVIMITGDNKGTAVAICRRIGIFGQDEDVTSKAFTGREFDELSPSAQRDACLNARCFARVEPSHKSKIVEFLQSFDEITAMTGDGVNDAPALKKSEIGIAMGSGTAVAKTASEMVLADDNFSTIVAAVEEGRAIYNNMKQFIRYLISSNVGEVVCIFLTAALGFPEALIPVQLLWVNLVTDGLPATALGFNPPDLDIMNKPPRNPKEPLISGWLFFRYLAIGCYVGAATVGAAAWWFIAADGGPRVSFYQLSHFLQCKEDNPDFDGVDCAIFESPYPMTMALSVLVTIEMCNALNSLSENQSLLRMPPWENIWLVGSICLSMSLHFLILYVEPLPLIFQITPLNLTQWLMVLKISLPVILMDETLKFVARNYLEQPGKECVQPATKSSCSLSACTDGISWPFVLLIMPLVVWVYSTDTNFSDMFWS
UniProt Q9DCX2: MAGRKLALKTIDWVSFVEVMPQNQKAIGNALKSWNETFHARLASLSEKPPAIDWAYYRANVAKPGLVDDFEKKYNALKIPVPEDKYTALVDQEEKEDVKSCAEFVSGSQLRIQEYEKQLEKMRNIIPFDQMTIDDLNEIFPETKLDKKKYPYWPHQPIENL

Legend:
[1] = molecular target: T1, HA-tagged MFSD7C^ΔN (mouse) (UniProt Q91X85); assay: co-IP; HA-tagged MFSD7C (or MFSD7C^ΔN) and FLAG-tagged partner co-transfected in 293FT cells; lysis in 20 mM Tris-HCl pH 7.4, 150 mM NaCl, 0.1% NP-40, 10% glycerol; sequential anti-FLAG and anti-HA precipitation with peptide elution, immunoblot with anti-HA and anti-FLAG; cells untreated (vehicle) or treated with 10 or 40 μM heme for 1 h before lysis
T1 sequence: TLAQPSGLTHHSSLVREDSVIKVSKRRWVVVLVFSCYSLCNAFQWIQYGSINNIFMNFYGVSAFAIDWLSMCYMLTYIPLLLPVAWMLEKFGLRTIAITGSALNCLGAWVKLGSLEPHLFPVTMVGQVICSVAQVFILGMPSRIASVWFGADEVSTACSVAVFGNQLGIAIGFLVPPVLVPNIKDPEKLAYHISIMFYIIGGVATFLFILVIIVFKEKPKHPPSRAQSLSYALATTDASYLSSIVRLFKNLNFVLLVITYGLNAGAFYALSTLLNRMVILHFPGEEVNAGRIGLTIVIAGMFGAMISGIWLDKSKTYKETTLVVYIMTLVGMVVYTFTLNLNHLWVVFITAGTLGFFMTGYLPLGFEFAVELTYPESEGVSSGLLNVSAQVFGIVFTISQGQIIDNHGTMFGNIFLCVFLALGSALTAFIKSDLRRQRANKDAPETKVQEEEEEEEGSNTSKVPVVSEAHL

[2] = molecular target: T2, HA-tagged murine MFSD7C (mouse) (UniProt Q91X85); assay: as above
T2 sequence: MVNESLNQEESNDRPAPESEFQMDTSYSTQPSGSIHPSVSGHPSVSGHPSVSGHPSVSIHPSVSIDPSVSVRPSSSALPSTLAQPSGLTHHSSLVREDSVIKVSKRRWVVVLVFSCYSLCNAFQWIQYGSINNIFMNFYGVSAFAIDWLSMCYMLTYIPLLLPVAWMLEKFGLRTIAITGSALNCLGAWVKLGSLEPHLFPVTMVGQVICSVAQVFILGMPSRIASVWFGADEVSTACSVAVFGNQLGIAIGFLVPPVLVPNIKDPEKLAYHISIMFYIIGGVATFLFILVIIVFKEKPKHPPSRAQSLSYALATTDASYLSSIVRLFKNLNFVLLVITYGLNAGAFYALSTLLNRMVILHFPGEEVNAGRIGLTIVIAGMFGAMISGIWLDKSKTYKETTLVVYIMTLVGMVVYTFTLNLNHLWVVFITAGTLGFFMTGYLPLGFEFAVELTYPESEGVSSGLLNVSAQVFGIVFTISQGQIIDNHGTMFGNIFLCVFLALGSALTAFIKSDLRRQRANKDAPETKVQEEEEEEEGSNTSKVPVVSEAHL

[3] = molecular target: T2, HA-tagged murine MFSD7C (mouse); assay: co-IP; as a2, result for cells treated with 10 μM or 40 μM heme for 1 h before lysis
[4] = molecular target: Atp2a2 (SERCA2b) (endogenous) (mouse (endogenous in MH-S and in bone marrow-derived macrophages)) (UniProt O55143); assay: co-IP; endogenous proteins in lysates of bone marrow-derived macrophages from Mfsd7c^fl/fl mice (control: Mfsd7c^-/-); anti-ATP5h, anti-SERCA2b and anti-HMOX1 immunoprecipitates blotted for MFSD7C; cells without or with heme treatment (with heme the co-IP with SERCA2b diminished, with HMOX1 enhanced)
[5] = molecular target: T3, HMOX1 (endogenous) (mouse (endogenous in MH-S and in bone marrow-derived macrophages)) (UniProt P14901); assay: as above
T3 sequence: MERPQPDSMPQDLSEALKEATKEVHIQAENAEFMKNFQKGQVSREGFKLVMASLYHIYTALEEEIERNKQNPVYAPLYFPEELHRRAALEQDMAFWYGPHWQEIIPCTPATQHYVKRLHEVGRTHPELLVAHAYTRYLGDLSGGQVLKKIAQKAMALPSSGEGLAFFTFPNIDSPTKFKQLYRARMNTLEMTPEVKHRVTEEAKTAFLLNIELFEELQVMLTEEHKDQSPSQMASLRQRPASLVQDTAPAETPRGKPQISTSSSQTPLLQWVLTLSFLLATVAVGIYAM

[6] = molecular target: ATP5h (endogenous) (mouse (endogenous in MH-S and in bone marrow-derived macrophages)) (UniProt Q9DCX2); assay: as above

Molecule | binding [1] | binding [2] | binding [3] | binding [4] | binding [5] | binding [6]
FLAG-tagged murine ATP5h (from UniProt Q9DCX2 1-161) | binds | binds | binds weakly |  |  | 
FLAG-tagged murine ATP5c1 (protein, UniProt Q91VR2 26-298) ATLKDITRRLKSIKNIQKITKSMKMVAAAKYARAERELKPARVYGTGSLALYEKADIKAPEDKKKHLIIGVSSDRGLCGAIHSSVAKQMKNEVAALTAAGKEVMIVGVGEKIKGILYRTHSDQFLVSFKDVGRKPPTFGDASVIALELLNSGYEFDEGSIIFNQFKSVISYKTEEKPIFSLNTIATAETMSIYDDIDADVLQNYQEYNLANLIYYSLKESTTSEQSARMTAMDNASKNASDMIDKLTLTFNRTRQAVITKELIEIISGAAALD | binds | binds | binds weakly |  |  | 
FLAG-tagged murine HMOX1 (protein, UniProt P14901 1-289) MERPQPDSMPQDLSEALKEATKEVHIQAENAEFMKNFQKGQVSREGFKLVMASLYHIYTALEEEIERNKQNPVYAPLYFPEELHRRAALEQDMAFWYGPHWQEIIPCTPATQHYVKRLHEVGRTHPELLVAHAYTRYLGDLSGGQVLKKIAQKAMALPSSGEGLAFFTFPNIDSPTKFKQLYRARMNTLEMTPEVKHRVTEEAKTAFLLNIELFEELQVMLTEEHKDQSPSQMASLRQRPASLVQDTAPAETPRGKPQISTSSSQTPLLQWVLTLSFLLATVAVGIYAM | no binding | binds |  |  |  | 
endogenous MFSD7C (protein, UniProt Q91X85 1-551) MVNESLNQEESNDRPAPESEFQMDTSYSTQPSGSIHPSVSGHPSVSGHPSVSGHPSVSIHPSVSIDPSVSVRPSSSALPSTLAQPSGLTHHSSLVREDSVIKVSKRRWVVVLVFSCYSLCNAFQWIQYGSINNIFMNFYGVSAFAIDWLSMCYMLTYIPLLLPVAWMLEKFGLRTIAITGSALNCLGAWVKLGSLEPHLFPVTMVGQVICSVAQVFILGMPSRIASVWFGADEVSTACSVAVFGNQLGIAIGFLVPPVLVPNIKDPEKLAYHISIMFYIIGGVATFLFILVIIVFKEKPKHPPSRAQSLSYALATTDASYLSSIVRLFKNLNFVLLVITYGLNAGAFYALSTLLNRMVILHFPGEEVNAGRIGLTIVIAGMFGAMISGIWLDKSKTYKETTLVVYIMTLVGMVVYTFTLNLNHLWVVFITAGTLGFFMTGYLPLGFEFAVELTYPESEGVSSGLLNVSAQVFGIVFTISQGQIIDNHGTMFGNIFLCVFLALGSALTAFIKSDLRRQRANKDAPETKVQEEEEEEEGSNTSKVPVVSEAHL |  |  |  | binds | binds | binds
